# Among all 420,000 compounds or so, about 50,000 (12%) were called active. The inconclusive results got no clear call from the source; some entries with a clear call stand among them for comparison. Calls come from the whole dose curve; as a rule, active = well fitted inhibition curve with a large enough effect; inconclusive = small, poorly fitted or top-dose-only effect; inactive = flat fitted curve, though single readings scatter. Potencies of inconclusive entries are left out as doubtful fits.
# Experiment: qHTS for Inhibitors of human tyrosyl-DNA phosphodiesterase 1 (TDP1): qHTS in cells in presence of CPT; note: nearly all actives have a fitted effect of over 55% in size
# Settings: chicken DT40 Tdp1-/-;hTDP1 cells + 20 nM CPT, ATP luminescence, 48 h; activity change, negative = growth inhibition: at 46.2 µM (top of the series) unless noted
# Method in brief: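 Chicken DT40 Tdp1-/- cells stably complemented with human TDP1 were seeded at 400 cells/well in medium containing 20 nM camptothecin, exposed to pin-transferred compounds, and grown at 37 °C for at least 48 hr. Viability was read as ATP luminescence.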
# % is set by controls: 0 for no effect and ±100 for the full control effect; potency is the fitted concentration of half-maximal effect; tags give direction and shape of the fitted curve.
SMILES,Potency,"activity change, negative = growth inhibition"
CCN(C(=O)CSc1ccccn1)C1CCCCC1,active: 10.3 µM,
CCCC(=O)NC(=S)Nc1ccc(S(=O)(=O)N2CCc3ccccc32)cc1,"inconclusive [inhibitor, single point]",
COc1ccc(C2=Nc3ccccc3N(C(=O)c3ccc(C)cc3)C2C(=O)NCc2ccccc2)cc1 (centres undefined),"inconclusive [inhibitor, single point]",
CNC(=O)c1ccc(Nc2nnc(-c3ccc(C)c(S(=O)(=O)NCC4CCCO4)c3)c3ccccc23)cc1 (centres undefined),active: 25.9 µM,
COc1ccc([N+](=O)[O-])cc1NC(=O)CSCc1ccc(Br)cc1,"inconclusive [inhibitor, single point]",
CCOC(=O)c1ccc(N2C(=O)Cc3ccccc3C2=O)cc1,,inconclusive: -33.1% [inhibitor]
CCCOc1ccc(-c2cccc(NS(=O)(=O)c3ccc(CC)cc3)c2)nn1,active: 16.4 µM,
O=C(C[n+]1cccc(C(=O)N/N=C/c2cccc([N+](=O)[O-])c2)c1)c1ccccc1,,inactive: -0.548%
CCCS(=O)(=O)NC(=O)C1(C)CCN1C(=O)Cc1ccc(-c2ccccc2)cc1 (centres undefined),,inactive: -1.57%
O=C1Nc2ccccc2N=C(c2ccc3c(c2)OCO3)C1N(CCc1ccccc1)C(=O)CSc1ncccn1 (centres undefined),"inconclusive [inhibitor, single point]",
O=C(CN1C(=O)NC2(CCCC2)C1=O)Nc1cc(Cl)ccc1Oc1ccccc1,"inconclusive [inhibitor, partial curve]",
CCCSCCCNC(=O)CN1C(=O)CCn2nc(-c3cn(C)c4ccccc34)cc21,"inconclusive [inhibitor, single point]",
Cc1ccc(NC(=O)CSc2nccn2Cc2ccc3c(c2)OCO3)c(C)c1,,inactive: -14.2%
CC1Cc2ccccc2N1C(=O)CN(C)S(=O)(=O)c1cccc2cccnc12 (centres undefined),"inconclusive [inhibitor, partial curve, poor fit]",
CCC1=C(c2ccc(C)cc2)S(=O)(=O)N=C1N1CCC(C(=O)NCc2ccc(C)cc2)CC1,"inconclusive [inhibitor, single point]",
O=S(=O)(c1ccc(SCc2ccccc2)nc1)N1CCCCC1,,inactive: -15.7%
CC1(C)CCC(=O)N2CC[C@H]3C[C@H](OC(=O)Nc4ccc(Br)cc4)C[C@@H]1[C@H]32,active: 35.5 µM,
O=C(Nc1ccc(F)cc1F)N1CCc2c(sc3c2CCCC3)C1c1ccc(F)cc1 (centres undefined),"inconclusive [inhibitor, single point]",
COCCn1c(=NC(=O)c2ccc3c(c2)OCCO3)sc2cc(NC(C)=O)ccc21,"inconclusive [inhibitor, single point]",
COC(=O)c1c(NC(=O)CC2SC(N)=NC2=O)sc2c1CCC(C(C)(C)C)C2 (centres undefined),"inconclusive [inhibitor, single point]",
C[C@H]1CN([C@@H](C)CO)C(=O)CCCn2cc(nn2)CO[C@@H]1CN(C)C(=O)Nc1ccccc1,,inactive: 8.28%
O=C(c1ccc2c(=O)n3c(nc2c1)CCCCC3)N1CCN(c2ccc(Cl)cc2)CC1,active: 23.1 µM,
Cc1ccccc1/C=N/n1c(-c2cc(-c3ccccc3)n[nH]2)n[nH]c1=S,"inconclusive [inhibitor, single point]",

SMILES,Potency,"activity change, negative = growth inhibition"
OC[C@@H]1[C@@H](c2ccc(F)cc2)C(c2ccccc2)=NN1c1ccccc1,"inconclusive [inhibitor, single point]",
COc1ccccc1C(=O)N1CC2(C)CC1CC(C)(C)C2 (centres undefined),"inconclusive [inhibitor, single point]",
O=C(/C=C/c1cn(-c2ccccc2)nc1-c1ccccc1)Nc1ccc(C(=O)O)cc1,"inconclusive [inhibitor, single point]",
O=C(O)c1cccc(-n2cccc2/C=C2/NC(=O)N(Cc3ccccc3F)C2=O)c1,"inconclusive [inhibitor, single point]",
CCNc1ncc2nc(-c3ccc(Cl)cc3)c(=O)n(-c3ccc(OC)cc3)c2n1,"inconclusive [inhibitor, partial curve]",
N=C1SCC(=O)N1c1ncc(Cc2ccccc2Cl)s1,"inconclusive [inhibitor, single point]",
COc1cc(Cl)c(C)cc1Nc1nnc(-n2nc(C)cc2C)c2ccccc12,,inconclusive: -31.3% [inhibitor]
CCC(CC)NCc1ccc2c(c1)c1ccccc1n2CC,active: 18.4 µM,
COc1ccc(-c2nc3sc(CCNS(=O)(=O)c4c(C)cc(C)cc4C)c(C)n3n2)cc1,"inconclusive [inhibitor, single point]",
Cc1ccc(C)c(CS(=O)(=O)c2cn(CC(=O)N3CCC(C)CC3)c3ccccc23)c1,"inconclusive [inhibitor, single point]",
COc1ccc(-n2c(C)c(C)c3c(NCCN(C)C)ncnc32)cc1,,inactive: -15.4%
Cc1cccc(C(=O)O/N=C2\CCCc3ccccc32)c1,,inactive: -8.23%
O=[N+]([O-])c1ccccc1N/N=C/c1cccc(O)c1O,"inconclusive [inhibitor, single point]",
CCOc1cccc(CNCc2ccc(C(=O)O)cc2)c1,,inactive: 2.21%
CC(C)=NNc1nc2c(c(=O)[nH]c(=O)n2C)n1CCc1ccccc1,,inconclusive: -32.2% [inhibitor]
CC(=O)c1cc(-c2ccccc2)n(CC(=O)N2CCN(C3CCCC3)CC2)c1C,"inconclusive [inhibitor, partial curve]",
Cc1ccc(Cl)cc1NC(=S)N(CCCN1CCOCC1)Cc1ccco1,,inactive: 11%
Cc1ccc(NC(=O)CSc2nc3[nH]ncc3c(=O)[nH]2)cc1Cl,,inconclusive: -60.3% [inhibitor]
COC(=O)C(Cc1ccc(OC(=O)c2ccccc2Cl)cc1)N1Cc2ccccc2C1=O (centres undefined),"inconclusive [inhibitor, single point]",
Cc1occc1C(=O)NC1CCCN(Cc2ccc(CC(C)C)cc2)C1 (centres undefined),"inconclusive [inhibitor, single point]",
CC(Oc1ccc(F)cc1)C(=O)N(CCC1=CCCCC1)c1c(N)n(Cc2ccccc2)c(=O)[nH]c1=O (centres undefined),"inconclusive [inhibitor, single point]",
CCOc1cc(/C=N/Nc2nc(C)cc(=O)[nH]2)ccc1O,,inactive: -22.9%
CC(=O)N1c2ccc(S(=O)(=O)N3CCCC(C(=O)N4CCCC(C)C4)C3)cc2CC1C (centres undefined),active: 23.1 µM,

SMILES,Potency,"activity change, negative = growth inhibition"
O=C(c1ccc([N+](=O)[O-])cc1)N(Cc1ccccc1)Cc1ccccc1,,inactive: -6.38%
O=C1C=CC(=O)N1,active: 3.26 µM,
C/C(=N/Nc1cc(-c2ccccc2)nc(-c2ccccc2)n1)c1ccc(O)cc1,active: 16.4 µM,
CC(=O)C1=CCC(c2ccc(Cl)c(Cl)c2)N(S(=O)(=O)c2ccc(C)cc2)C1 (centres undefined),"inconclusive [inhibitor, single point]",
CC(=NNC(=S)Nc1cccc(C)c1)c1ccccn1,active: 0.0184 µM,
CCC(C)(C)C1CCC2(CC1)NC(=O)N(CC(=O)NCCc1c[nH]c3ccccc13)C2=O (centres undefined),active: 16.4 µM,
CS(=O)(=O)N1CCCC(C(=O)N2CCN(c3cccc(Cl)c3)CC2)C1 (centres undefined),active: 20.6 µM,
Cc1cc(SCC(=O)Nc2nsc(-c3ccc(C(C)(C)C)cc3)n2)nc2ccccc12,"inconclusive [inhibitor, single point]",
COc1cccc(N2CCN(C(=O)c3c4c(nc5ccccc35)C(=O)N(C3CCCCC3)C4)CC2)c1,active: 20.6 µM,
COc1ccc(CCNC(=O)C(=O)NCC2CCCN2S(=O)(=O)c2cccs2)cc1 (centres undefined),"inconclusive [inhibitor, single point]",
COc1ccc(OCc2nc(C#N)c(NCc3ccccc3Cl)o2)cc1,"inconclusive [inhibitor, single point]",
Cc1cc(C)c(-c2csc(Cc3nc(-c4cc5ccccc5oc4=O)cs3)n2)cc1C,active: 18.4 µM,
Cc1ccc(NC(=O)CSc2cccc3cccnc23)c(C)c1,"inconclusive [inhibitor, single point]",
CC(=O)c1ccc(N2CCN(c3ccc(S(=O)(=O)NCCN(C)C)cc3[N+](=O)[O-])CC2)cc1,"inconclusive [inhibitor, single point]",
Fc1ccc(-c2csc3ncnc(N4CCc5ccccc5C4)c23)cc1,active: 16.4 µM,
O=C(NCC1CCCN1S(=O)(=O)c1cccs1)c1ccc(Cl)cc1 (centres undefined),"inconclusive [inhibitor, single point]",
Cc1cc(C(=O)c2ccccc2)c(NC(=O)CCl)s1,active: 9.2 µM,
Cc1ccccc1N(CC(=O)N/N=C/c1cc(C)n(-c2ccccc2C)c1C)S(C)(=O)=O,"inconclusive [inhibitor, single point]",
CC(C)(C)[C@H]1COC(=O)[C@H](NC(=O)OCC2c3ccccc3-c3ccccc32)C/C=C\C[C@@H](CC(=O)N[C@H](CO)Cc2ccccc2)C(=O)N1,active: 7.31 µM,
CSc1ccc(/C=C2\C=Cc3cc([N+](=O)[O-])ccc32)cc1,active: 11.2 µM,
CCc1nc2c(OCc3ccc(F)cc3)cccn2c1N(C)C(=O)c1ccc(C)cc1,active: 14.6 µM,
COCCNC(=O)C1(C)CCCN(C(=O)c2ccc(-c3ccccc3)cc2)C1 (centres undefined),"inconclusive [inhibitor, single point]",
Cc1nn(C)c(C)c1NC(=O)CC12CC3CC(CC(C3)C1)C2,"inconclusive [inhibitor, single point]",

# Source: PubChem BioAssay AID686979 (National Center for Advancing Translational Sciences (NCATS), 2013)
